Experimental data taken from the supplement of paper PMC10369915.
The other results are listed elsewhere or left out. Rule as the data show it: active = 3.2 or more and inactive = the rest. Most of these values are background signal.

Molecular target: SHP2 C-SH2 domain E139D
Experiment: enrichment score (SH2-bound / input frequency) (ratio); bacterial display of known human phosphotyrosine sites (pTyr-Var adds point mutants) read by sequencing; higher = stronger binding; tyrosines were phosphorylated by kinases first
Settings: peptide library: Human pTyr
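Also: displayed peptides selected on beads carrying the immobilized SH2 domain, with library peptides lacking any tyrosine serving as negative controls.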

Binder	enrichment score
NTGSSQNYPIVQNAQ [POL_HV1U4_128]	inactive: 0.599
DSKISQNYPIVQNAQ [POL_HV1V9_134]	inactive: 0.695
DKGVSQNYPIVQNLQ [POL_HV1VI_128]	inactive: 0.848
SSQVSQNYPIVQNLQ [POL_HV1Y2_132]	inactive: 0.688
DSSISRNYPLVQNAQ [POL_HV1YB_134]	inactive: 0.594
DSNISRNYPLVQTAQ [POL_HV1YF_134]	inactive: 0.585
NSQVSQNYPIVQNLQ [POL_HV1Z2_133]	inactive: 0.708
APPSGGNYPVQQLAG [POL_HV2D2_130]	inactive: 0.731
KPTSRLAYPVQQIAG [POL_HV2EH_130]	inactive: 1.77
SSEKGGNYPVQHVGG [POL_HV2RO_135]	inactive: 0.76
APPSGGNYPVQQIAG [POL_HV2UC_130]	inactive: 0.598
KLEETLHYTFRQGYV [SHUT_ADE02_365]	inactive: 1.53
KLEETLHYTFRQGAV [SHUT_ADE02_365_YA]	inactive: 1.24

Molecular target: SHP2 C-SH2 domain wild-type
Experiment: as above
Settings: peptide library: Human pTyr

Binder	enrichment score
NTGSSQNYPIVQNAQ [POL_HV1U4_128]	inactive: 0.714
DSKISQNYPIVQNAQ [POL_HV1V9_134]	inactive: 0.666
DKGVSQNYPIVQNLQ [POL_HV1VI_128]	inactive: 0.555
SSQVSQNYPIVQNLQ [POL_HV1Y2_132]	inactive: 0.675
DSSISRNYPLVQNAQ [POL_HV1YB_134]	inactive: 0.503
DSNISRNYPLVQTAQ [POL_HV1YF_134]	inactive: 0.577
NSQVSQNYPIVQNLQ [POL_HV1Z2_133]	inactive: 0.597
APPSGGNYPVQQLAG [POL_HV2D2_130]	inactive: 0.495
KPTSRLAYPVQQIAG [POL_HV2EH_130]	inactive: 1.68
SSEKGGNYPVQHVGG [POL_HV2RO_135]	inactive: 0.677
APPSGGNYPVQQIAG [POL_HV2UC_130]	inactive: 0.501
KLEETLHYTFRQGYV [SHUT_ADE02_365]	inactive: 1.8
KLEETLHYTFRQGAV [SHUT_ADE02_365_YA]	inactive: 1.21

Molecular target: SHP2 N-SH2 domain L43F
Experiment: as above
Settings: peptide library: Human pTyr

Binder	enrichment score
NTGSSQNYPIVQNAQ [POL_HV1U4_128]	inactive: 0.685
DSKISQNYPIVQNAQ [POL_HV1V9_134]	inactive: 0.777
DKGVSQNYPIVQNLQ [POL_HV1VI_128]	inactive: 0.707
SSQVSQNYPIVQNLQ [POL_HV1Y2_132]	inactive: 0.71
DSSISRNYPLVQNAQ [POL_HV1YB_134]	inactive: 0.815
DSNISRNYPLVQTAQ [POL_HV1YF_134]	inactive: 0.456
NSQVSQNYPIVQNLQ [POL_HV1Z2_133]	inactive: 0.753
APPSGGNYPVQQLAG [POL_HV2D2_130]	inactive: 0.616
KPTSRLAYPVQQIAG [POL_HV2EH_130]	inactive: 1.4
SSEKGGNYPVQHVGG [POL_HV2RO_135]	inactive: 0.722
APPSGGNYPVQQIAG [POL_HV2UC_130]	inactive: 0.591
KLEETLHYTFRQGYV [SHUT_ADE02_365]	inactive: 1.21
KLEETLHYTFRQGAV [SHUT_ADE02_365_YA]	inactive: 1.16

Molecular target: SHP2 N-SH2 domain T42A
Experiment: as above
Settings: peptide library: Human pTyr

Binder	enrichment score
NTGSSQNYPIVQNAQ [POL_HV1U4_128]	inactive: 0.814
DSKISQNYPIVQNAQ [POL_HV1V9_134]	inactive: 0.648
DKGVSQNYPIVQNLQ [POL_HV1VI_128]	inactive: 0.623
SSQVSQNYPIVQNLQ [POL_HV1Y2_132]	inactive: 0.646
DSSISRNYPLVQNAQ [POL_HV1YB_134]	inactive: 0.686
DSNISRNYPLVQTAQ [POL_HV1YF_134]	inactive: 0.606
NSQVSQNYPIVQNLQ [POL_HV1Z2_133]	inactive: 0.633
APPSGGNYPVQQLAG [POL_HV2D2_130]	inactive: 0.533
KPTSRLAYPVQQIAG [POL_HV2EH_130]	inactive: 1.93
SSEKGGNYPVQHVGG [POL_HV2RO_135]	inactive: 0.634
APPSGGNYPVQQIAG [POL_HV2UC_130]	inactive: 0.738
KLEETLHYTFRQGYV [SHUT_ADE02_365]	inactive: 1.45
KLEETLHYTFRQGAV [SHUT_ADE02_365_YA]	inactive: 1.05

Molecular target: SHP2 N-SH2 domain T52S
Experiment: as above
Settings: peptide library: Human pTyr

Binder	enrichment score
NTGSSQNYPIVQNAQ [POL_HV1U4_128]	inactive: 0.678
DSKISQNYPIVQNAQ [POL_HV1V9_134]	inactive: 0.738
DKGVSQNYPIVQNLQ [POL_HV1VI_128]	inactive: 0.734
SSQVSQNYPIVQNLQ [POL_HV1Y2_132]	inactive: 0.57
DSSISRNYPLVQNAQ [POL_HV1YB_134]	inactive: 0.878
DSNISRNYPLVQTAQ [POL_HV1YF_134]	inactive: 0.677
NSQVSQNYPIVQNLQ [POL_HV1Z2_133]	inactive: 0.826
APPSGGNYPVQQLAG [POL_HV2D2_130]	inactive: 0.555
KPTSRLAYPVQQIAG [POL_HV2EH_130]	inactive: 2.02
SSEKGGNYPVQHVGG [POL_HV2RO_135]	inactive: 0.659
APPSGGNYPVQQIAG [POL_HV2UC_130]	inactive: 0.692
KLEETLHYTFRQGYV [SHUT_ADE02_365]	inactive: 1.73
KLEETLHYTFRQGAV [SHUT_ADE02_365_YA]	inactive: 1.1

Molecular target: SHP2 N-SH2 domain wild-type
Experiment: as above
Settings: peptide library: Human pTyr

Binder	enrichment score
NTGSSQNYPIVQNAQ [POL_HV1U4_128]	inactive: 0.733
DSKISQNYPIVQNAQ [POL_HV1V9_134]	inactive: 0.784
DKGVSQNYPIVQNLQ [POL_HV1VI_128]	inactive: 0.699
SSQVSQNYPIVQNLQ [POL_HV1Y2_132]	inactive: 0.68
DSSISRNYPLVQNAQ [POL_HV1YB_134]	inactive: 0.668
DSNISRNYPLVQTAQ [POL_HV1YF_134]	inactive: 0.662
NSQVSQNYPIVQNLQ [POL_HV1Z2_133]	inactive: 0.608
APPSGGNYPVQQLAG [POL_HV2D2_130]	inactive: 0.538
KPTSRLAYPVQQIAG [POL_HV2EH_130]	inactive: 2.41
SSEKGGNYPVQHVGG [POL_HV2RO_135]	inactive: 0.704
APPSGGNYPVQQIAG [POL_HV2UC_130]	inactive: 0.608
KLEETLHYTFRQGYV [SHUT_ADE02_365]	inactive: 1.83
KLEETLHYTFRQGAV [SHUT_ADE02_365_YA]	inactive: 1.14
